From PubChem BioAssay AID1468 (National Center for Advancing Translational Sciences (NCATS), 2008)
The whole screen tested about 280,000 compounds, of which about 1,100 (0.39%) were called active. Inconclusive means that the source gave no clear call. Such entries were picked first, then a sample of the others. Calls come from the whole dose curve; as a rule, active = well fitted inhibition curve with a large enough effect; inconclusive = small, poorly fitted or top-dose-only effect, or effect the other way; inactive = flat fitted curve, though single readings scatter. Potencies of inconclusive entries are left out as doubtful fits.
% is set by controls: 0 for no effect and ±100 for the full control effect; potency is the fitted concentration of half-maximal effect; tags give direction and shape of the fitted curve.
Note: nearly all actives have a fitted effect of over 55% in size.

These molecules were tested against Microtubule-associated protein tau (Homo sapiens) (UniProt P10636) (assay: qHTS for Inhibitors of Tau Fibril Formation, Fluorescence Polarization). Settings: K18 P301L tau heparin fibrillization, Alexa594 FP, 6 h; series mostly up to 57.7 µM.
Chain of UniProt P10636 (P10636 whole entry, looked up): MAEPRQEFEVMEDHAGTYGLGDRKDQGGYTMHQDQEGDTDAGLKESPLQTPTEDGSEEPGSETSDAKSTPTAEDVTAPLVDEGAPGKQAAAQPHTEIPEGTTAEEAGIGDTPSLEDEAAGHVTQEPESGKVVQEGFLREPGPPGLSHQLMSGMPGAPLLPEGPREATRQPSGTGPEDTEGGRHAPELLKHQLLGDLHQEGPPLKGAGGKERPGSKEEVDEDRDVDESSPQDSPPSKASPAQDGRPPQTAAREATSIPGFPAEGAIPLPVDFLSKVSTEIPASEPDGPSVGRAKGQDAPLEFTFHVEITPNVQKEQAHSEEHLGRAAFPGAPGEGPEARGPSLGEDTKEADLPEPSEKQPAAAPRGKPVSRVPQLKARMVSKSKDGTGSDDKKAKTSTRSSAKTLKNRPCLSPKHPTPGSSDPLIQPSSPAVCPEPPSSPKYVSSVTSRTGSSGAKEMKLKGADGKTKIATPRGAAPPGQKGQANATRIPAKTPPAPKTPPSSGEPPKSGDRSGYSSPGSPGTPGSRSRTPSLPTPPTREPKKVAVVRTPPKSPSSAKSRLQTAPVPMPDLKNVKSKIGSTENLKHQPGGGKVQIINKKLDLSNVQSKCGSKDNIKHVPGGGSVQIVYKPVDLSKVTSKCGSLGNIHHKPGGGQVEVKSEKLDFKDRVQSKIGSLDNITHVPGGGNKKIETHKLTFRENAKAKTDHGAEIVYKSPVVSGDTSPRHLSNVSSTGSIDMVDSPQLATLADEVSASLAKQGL
In short: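 Compound effects on tau fibrillization are measured by Alexa 594 fluorescence polarization (ex 555, em 632 nm). K18 P301L tau is used at 15 uM with 0.24 uM labeled tracer, and 20 uM heparin induces aggregation over 6 hr at 37 C.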
For Cc1cc(C)cc(NCc2cc(=O)oc3cc(-c4ccccc4)c(O)cc23)c1, the Potency was inconclusive [activator, full curve, poor fit]. COc1ccc(-c2nnc(SCC(=O)NC(=O)NCc3ccccc3)o2)cc1 was tested, and the Potency was “inactive”. Nc1nc(-c2ccc(Cl)cc2)c(S(=O)(=O)c2ccccc2)s1 was tested, and the Potency was inconclusive [inhibitor, single point]. In the case of O=C(Nc1ccc(Br)c(Cl)c1)c1ccc(C(=O)Nc2ccc(Br)c(Cl)c2)cc1, the Potency is reported as inconclusive [inhibitor, partial curve, poor fit]. In the case of Cc1nc2ccc(-c3nc4cc(N)ccc4o3)cc2[nH]1, the Potency is reported as “inactive”. In the case of Nc1ncnc2c1nc(Br)n2C1O[C@H]2COP(=O)(O)O[C@@H]2C1O (stereo partly specified), the Potency is reported as inconclusive [inhibitor, partial curve]. C=C(C)COc1ccc(-c2nc(N)ncc2Oc2ccccc2OC)c(O)c1 was tested, and the Potency was inconclusive [inhibitor, partial curve]. In the case of CCOc1ccccc1C1C(C(=O)Nc2ccccc2)=C(C)Nc2nc(SCC(=O)c3ccc(C)cc3)nn21 (stereo unspecified), the Potency is reported as inconclusive [inhibitor, partial curve]. Cc1onc(-c2ccccc2Cl)c1C(=O)OCn1nnc2ccccc2c1=O was tested, and the Potency was inconclusive [inhibitor, partial curve]. In the case of CN(C(=O)CSc1nc(-c2ccccc2)no1)c1ccc(F)cc1, the Potency is reported as inconclusive [inhibitor, full curve, poor fit]. With N#Cc1cccc(N=c2ssnc2Cl)c1 the Potency was inconclusive [inhibitor, partial curve, poor fit]. In the case of CC1CCCN(C(=O)CCCn2c(=S)[nH]c3ccccc3c2=O)C1 (stereo unspecified), the Potency is reported as “inactive”. With Cc1ccc(Cl)cc1N1CCN(S(=O)(=O)c2cn(C)c(C)n2)CC1 the Potency was “inactive”. For Cc1ccc(-c2nnc(Nc3cccc(Cl)c3)c3ccccc23)cc1S(=O)(=O)N1CCN(C)CC1, the Potency was inconclusive [inhibitor, partial curve]. O=C1CN(C(=O)COC(=O)c2ccccc2NCc2ccco2)c2ccccc2N1 was tested, and the Potency was inconclusive [inhibitor, single point]. In the case of CCC(Oc1ccccc1)C(=O)NCCOC (stereo unspecified), the Potency is reported as “inactive”. Cc1ccccc1NC(=O)C1CCN(S(=O)(=O)c2c(C)noc2/C=C/c2ccco2)CC1 was tested, and the Potency was “inactive”. For CCOC(=O)c1c(C)n(-c2ccc(C)cc2)c2ccc(OCC(O)CNCC3CCCO3)cc12 (stereo unspecified), the Potency was “inactive”. O=C(CN1CCOCC1)N1CCc2ccccc2C(c2ccccc2)C1 (stereo unspecified) was tested, and the Potency was inconclusive [inhibitor, single point]. Cc1ccc(NC(=O)Cc2nn(C)c(=O)c3ccccc23)cc1F was tested, and the Potency was inconclusive [inhibitor, single point]. In the case of CC(C)C(=O)Nc1ccnc(-c2cccnc2)n1, the Potency is reported as “inactive”. For CCn1c2ccccc2c2cc(NC(=O)c3cccc(OC)c3OC)ccc21, the Potency was inconclusive [activator, single point]. With C#CCn1c(=NC(=O)c2ccc(S(=O)(=O)N3CCCc4ccccc43)cc2)sc2cc(S(N)(=O)=O)ccc21 the Potency was inconclusive [inhibitor, partial curve]. With Nc1nonc1-n1nnc(C(=O)N/N=C/C=C/c2ccccc2)c1CSC1=NCCS1 the Potency was “inactive”. With Nc1nc(-c2ccccc2)c(N=Nc2ccccc2Cl)s1 the Potency was inconclusive [inhibitor, single point]. For COc1ccc(-c2nn(-c3ccccc3)cc2/C=N/Nc2ccccn2)cc1OC, the Potency was inconclusive [activator, partial curve]. With O=C1CCC(C(=O)OCC(=O)N2N=C3/C(=C/c4ccccc4)CCCC3C2c2ccccc2)N1 (stereo unspecified) the Potency was “inactive”. For Cc1ccc(Cl)cc1N1CCN(C(=O)CCS(=O)(=O)c2cc(Br)cc3c2N(C(=O)C2CC2)CC3)CC1, the Potency was “inactive”. Cc1c(C(=O)Nc2ccc(Cc3ccncc3)cc2)cccc1[N+](=O)[O-] was tested, and the Potency was inconclusive [activator, single point]. In the case of O=C(/C=C/C(=O)Oc1ccccc1C(=O)O)Oc1ccccc1C(=O)O, the Potency is reported as active: 25.1 µM. In the case of Cc1ccc(Cl)cc1NC(=O)c1ccccc1OCC(=O)Nc1ccc(Cl)cc1, the Potency is reported as inconclusive [inhibitor, single point]. With COc1cccc(OCc2cc(/C=N/Nc3ccc(C(=O)O)cc3)ccc2OC)c1 the Potency was “inactive”. For CCOC(=O)c1cc2n(c1/N=C/N(C)C)-c1ccccc1C2=O, the Potency was active: 25.1 µM. Cc1ccc2nc(NC(=O)COC(=O)c3ccc(Br)o3)sc2c1 was tested, and the Potency was inconclusive [inhibitor, partial curve]. In the case of COc1ccc(NC(=O)C2CSC3c4ccccc4C(=O)N23)cc1 (stereo unspecified), the Potency is reported as “inactive”. With Cc1sc2c(c1C)c(=O)n(CCc1ccccc1)c(=O)n2Cc1ccc(C(C)(C)C)cc1 the Potency was “inactive”. In the case of Cc1cccc(Nc2nnc(SC/C(O)=C(\C#N)c3nc4ccccc4[nH]3)s2)c1C, the Potency is reported as inconclusive [activator, full curve, poor fit]. In the case of CC(=O)Nc1ccc(S(=O)(=O)N2CCc3nc(-c4ccccc4)c4c(c3C2)CO[C@@H](C)C4)cc1, the activity, negative = inhibition is reported as inactive: -4.81% [at 11.6 µM]. For O=C(c1ccc(COc2ccc(Br)cc2)o1)N1N=C(C(F)F)CC1(O)C(F)F (stereo unspecified), the Potency was inconclusive [inhibitor, full curve]. For COC(=O)CCC(=O)OC1(C)C(=O)C=C2C=C(C3CC3)N(C3CC3)C=C2C1=O (stereo unspecified), the Potency was inconclusive [inhibitor, partial curve]. In the case of COc1ccc(S(=O)(=O)N2Cc3ccccc3CC2C(=O)Nc2cc(Cl)ccc2Cl)cc1 (stereo unspecified), the Potency is reported as inconclusive [inhibitor, partial curve, poor fit]. For O=C1C2=C(c3ccccc31)[N+](=O)C1CCCCC1N2[O-] (stereo unspecified), the Potency was inconclusive [inhibitor, partial curve]. For COc1ccnc(CSC(N)=Nc2ccc(F)cc2)c1, the Potency was inconclusive [inhibitor, single point]. In the case of C/C(=N\Nc1ccc([N+](=O)[O-])cc1[N+](=O)[O-])C(C)C(C)C (stereo unspecified), the Potency is reported as inconclusive [activator, full curve, poor fit]. For COc1cc(-c2cccc([C@H]3[C@@H]4C=CC[C@@H](C)[C@@H]4C(=O)N3Cc3ccccc3)c2)cc(OC)c1OC, the Potency was “inactive”. For O=C(NNc1c2ccccc2nc2ccccc12)c1ccccc1O, the Potency was “inactive”. CCC(C)c1ccccc1NC(=O)COC(=O)c1ccc2c(c1)S(=O)(=O)c1ccccc1C2=O (stereo unspecified) was tested, and the Potency was inconclusive [activator, partial curve]. With CCn1c(=O)cc(OCC(=O)NC(C)c2ccc3c(c2)OCCO3)c2ccccc21 (stereo unspecified) the Potency was inconclusive [inhibitor, full curve, poor fit]. In the case of COc1cc(CN(C(=O)COc2ccc(F)cc2)c2ccccn2)cc(OC)c1OC, the Potency is reported as “inactive”. For N#Cc1nc(-c2cccc3ccccc23)oc1NCCN1CCCCC1, the Potency was inconclusive [activator, single point]. In the case of Cn1c(=O)c2sccc2n2c(CCCC(=O)Nc3ccc(Oc4ccccc4)cc3)nnc12, the Potency is reported as “inactive”. COc1ccc(N2CCN(S(=O)(=O)c3ccc4c(c3)C(C(C)C)C(=O)N4)CC2)cc1 (stereo unspecified) was tested, and the Potency was “inactive”. O=C1CCCC2=C1C(c1ccccc1)CC(=O)N2c1ccc(F)cc1F (stereo unspecified) was tested, and the Potency was inconclusive [inhibitor, full curve, poor fit]. In the case of Cc1cccc(NC(=S)N/N=C/c2c[nH]c3ccccc23)c1, the Potency is reported as inconclusive [inhibitor, single point]. For CCOc1ccc(CCNC(=O)c2cc(=O)[nH]c3ccc(S(=O)(=O)N4CCCCC4C)cc23)cc1OCC (stereo unspecified), the Potency was inconclusive [inhibitor, single point]. In the case of O=C(NCCc1ccccc1)C(c1cccs1)N(C(=O)CCl)c1ccc(Cl)cc1 (stereo unspecified), the Potency is reported as inconclusive [activator, single point]. In the case of Fc1ccccc1-c1nc(N2CCN(c3cccc(Cl)c3)CC2)c2ccccc2n1, the Potency is reported as inconclusive [inhibitor, partial curve]. With CC(C)(C)C1CCc2c(sc(NC(=O)C3c4ccccc4Oc4ccccc43)c2C(N)=O)C1 (stereo unspecified) the Potency was inconclusive [inhibitor, partial curve]. COC(=O)c1cccc(-c2ccc(C(c3c(C)[nH][nH]c3=O)c3c(C)[nH][nH]c3=O)o2)c1 was tested, and the Potency was inconclusive [inhibitor, full curve]. With Cc1cc(C)c2sc(N(CCN(C)C)C(=O)c3c(F)cccc3F)nc2c1 the Potency was inconclusive [inhibitor, single point]. CCOc1ccc(NC(=O)Cn2c(=O)n(Cc3ccc4c(c3)OCO4)c(=O)c3ccc(C(=O)NC4CCCCC4)cc32)cc1 was tested, and the Potency was inconclusive [inhibitor, full curve]. With Cc1ccc(NC(=O)CCN2C(=O)CSC2=O)cc1 the Potency was “inactive”. For CC(=O)N1CCc2cc(Br)cc(S(=O)(=O)N3CCC(C(=O)Nc4cccc(C)c4C)CC3)c21, the Potency was “inactive”. O=C(Nc1cccc(-c2nc3ccccc3[nH]2)c1)c1ccc(C(=O)Nc2cccc(-c3nc4ccccc4[nH]3)c2)cc1 was tested, and the Potency was inconclusive [inhibitor, partial curve]. With COc1ccccc1N/C(N)=N/c1nc(C(F)(F)F)cc(=O)[nH]1 the Potency was inconclusive [activator, single point]. In the case of O=C(CCNc1ccc(Br)cc1)c1cccc([N+](=O)[O-])c1, the Potency is reported as inconclusive [activator, partial curve, poor fit].
